# Some of the results follow.
# Test system: T1, C. trachomatis L2/434/Bu expressing GFP (CTL2-GFP)
# T1 construct: L2/434/Bu GFP intracellular growth in HeLa cells
# Design: species or system HeLa; C. trachomatis total inclusion area by high-content imaging, normalised to DMSO
# Settings: total inclusion area; 28.5 h, 10 µM; inhibitor
# In short: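 High-content imaging followed the bulk GFP/resorufin measurement: fixed, Hoechst-stained cells were scored for GFP inclusions and host nuclei per well. Total inclusion area and count served as growth proxies, nuclei number as the viability proxy. MIC calculation matched the bulk assay.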
row,SMILES,% of control remaining
1,O=C(NC(=O)N1CCSC1)c1c(Cl)cccc1Cl [CBK028794],76.4668
2,Cc1cc(=O)oc2cc(NC(=S)NNC(=O)c3ccc4c(c3)c(C)c(C)n4Cc3ccccc3)ccc12 [CBK267138],131.838
3,O=C(O)CNS(=O)(=O)c1ccc(Cl)c(Cl)c1 [CBK266981],112.75
4,Clc1ccc(CN2CCC(Oc3nccnc3OC3CCCCC3)CC2)cc1 [CBK082856T],96.3409
5,CCCCOc1ccc(-c2nonc2NC(=O)COc2ccccc2Cl)cc1 [CBK299792],116.178
6,CCCn1c(N)c(C(=O)CSc2ncnc3sc4c(c23)CCCC4)c(=O)[nH]c1=O [CBK297556],103.701
7,S=c1[nH]nc(-c2ccco2)n1-c1ccc(Cl)cc1 [CBK023586],22.3589
8,CC1=NN(c2ccc([N+](=O)[O-])cc2)C(=O)/C1=C\NCCc1ccc(S(N)(=O)=O)cc1 [CBK263006],110.445
9,Cc1ccc(-c2nnc(COc3ccc(-c4cnc5ccccc5n4)cc3)o2)cc1 [CBK269721],61.596
10,COC(=O)c1ccc(CSc2nnc(-c3ccc(OC)cc3)n2C(C)C)o1 [CBK297523],83.0983
11,FC(F)(F)c1nc2ccccc2[nH]1 [CBK028224],37.1137
12,CCCC(=O)N(C)C(CO)c1cc(OC)ccc1Br (stereo not drawn) [CBK304694],51.8007
13,CCN(CC)C(=O)c1c(F)ccc(F)c1C(=O)O [CBK022303],87.3398
14,CCN(CC)CCn1c(OC)cc(=O)[nH]c1=O [CBK264411],119.454
15,CC(C)c1nn(C)c(N(C)C)c1CNCc1cscn1 [CBK304321C],92.9031
16,Cc1ccc(S(=O)(=O)N(CCC#N)CCN2CCCC2)cc1 [CBK028055],89.129
17,O=C(NCC1COc2ccccc2O1)N1CCCCC1CO (stereo not drawn) [CBK156162],97.2771
18,CC(NC(=O)CN1CCCCCC1=O)c1cc2cc(Cl)ccc2o1 (stereo not drawn) [CBK281448],106.293
19,Cc1nc(C2CCN(C(=O)C3CCC3)CC2)nc2c1CCCN2CCc1ccccc1 [CBK285645],82.1218
20,O=C(Nc1ccc(F)cc1)N1Cc2nc[nH]c2C[C@H]1c1nc(-c2ccc(F)cc2)no1 [CBK288970],111.961
21,Oc1cccc2c1CC(NCC(F)(F)C(F)(F)F)CC2 (stereo not drawn) [CBK007596],100.965
22,CCN(CC)C(=O)c1cccc(NS(=O)(=O)c2cccc3cccnc23)c1 [CBK038999],73.2881
23,CCCc1nc(SC)ncc1C(=O)Nc1nnc(SCC)s1 [CBK291198],82.4505
24,C=CCOc1ccccc1OCCCN1CCN(C)CC1 [CBK269714C],120.013
25,O=C(Nc1ccc(F)cc1)c1sccc1NS(=O)(=O)Cc1ccccc1 [CBK004574],76.0139
26,O[C@@H]1CN(Cc2ccc(F)c(F)c2)CC[C@H]1NC1CC1 [CBK283319],93.9549

row,SMILES,% of control remaining
1,Cc1nc(O)cc(C2CCN(C(=O)c3csc4c3CCCC4)CC2)n1 [CBK307618],75.5058
2,CCCCN(C)c1c(C)nc2c(OCc3ccc(S(=O)(=O)N(C)C)cc3)cccn12 [CBK147189],97.8211
3,CCOc1nc(NCCC2=CCCCC2)nc(OCC)n1 [CBK027387],65.5615
4,CC(NS(=O)(=O)c1ccc(CCC(=O)N2CCN(C)CC2)cc1)c1ccccc1 (stereo not drawn) [CBK266868],125.746
5,O=C(NCc1ccncc1)c1csc2c(C(F)(F)F)cc(N3CCN(Cc4ccccc4)CC3)nc12 [CBK034294T],77.7284
6,COc1cccc(CNc2ccc(N3CCCCC3)cc2)c1OCc1cccs1 [CBK074531],33.6271
7,NC(=O)CN1CCCN(c2ccnc(OCC3COc4ccccc4O3)n2)CC1 (stereo not drawn) [CBK083236T],15.9487
8,Cc1cc2ccccc2n2c(=O)n(CC(=O)N3CCCCC3)nc12 [CBK283878],110.707
9,O=C(NC(c1cccnc1)c1ccc2c(c1)OCO2)C1CCN(CCc2cccs2)CC1 (stereo not drawn) [CBK148503],91.7573
10,Cc1nn(Cc2ccccc2)c(C)c1CNC(=O)c1nc(Cl)ccc1Cl [CBK297928],102.1
11,O=C(O)c1ccc2c(c1)C(=O)N(Cc1cccc(CN3C(=O)c4ccc(C(=O)O)cc4C3=O)c1)C2=O [CBK265556],94.6932
12,CCn1nc(C)c(-c2cncn2CCCN2CCCCC2)c1C [CBK281769],106.161
13,O=C(NCc1ccc(Cl)cc1)C1CCCN1c1nc(O)cc(C(F)(F)F)n1 (stereo not drawn) [CBK003706],88.9133
14,COc1ccc(CCN(C(C)=O)C2CC(=O)N(c3ccccc3)C2=O)cc1OC (stereo not drawn) [CBK262349],80.3114
15,CCOc1ccc(NC(c2ccccc2)c2cc3cc(OC)ccc3[nH]c2=O)cc1 (stereo not drawn) [CBK286157],136.668
16,CC(C)Nc1cc(SCc2cccc(C(F)(F)F)c2)ncn1 [CBK107161],90.271
17,O=C1Nc2ccc(-c3ccc4c(c3)OCO4)cc2C(=O)N2CCN(C(=O)CO)C[C@H]12 [CBK289593],82.3247
18,CCC1CCCCN1C(=O)c1ccc(C)c(Cl)c1 (stereo not drawn) [CBK082756],90.6426
19,Cc1cc(C(F)(F)F)nn1CCNC(=O)c1cn2ccsc2n1 [CBK307260],69.7217
20,O=C(NCc1ccc2c(c1)OCO2)N1CCCCC1CO (stereo not drawn) [CBK156166],97.7652
21,CC(=O)Nc1ccc(-c2cc(Nc3ccc(NC(=O)c4ccc(N)cc4)cc3)ncn2)cc1 [CBK091103],78.4252
22,Brc1csc(CNc2ccc3cn[nH]c3c2)c1 [CBK021216],51.1976
23,COc1cc(C(=O)NCc2ccc(-c3csnn3)cc2)cc(OC)c1OC [CBK149308],116.734
24,Cc1onc(-c2ccccc2Cl)c1C(=O)Nc1ccc(CC(=O)O)cc1 [CBK269623],71.54
25,CCCCCn1c(O)nnc1SCc1csc(CS(=O)(=O)c2ccc(Cl)cc2)n1 [CBK007176],88.5158
